Assay results taken from the supplement of paper PMC8728848.
This is one part of the list.

Columns and labels:
Test in all cases: glycan array binding signal (z-score within array); higher = stronger binding
Details in all cases: glycan notation: IUPAC condensed, linker removed
Fuc(a1-2)Gal = target: Fuc(a1-2)Gal
Method in brief: (§1)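 Arrays were curated from the Consortium for Functional Glycomics database, 3228 in total, and kept only where the protein sequence was available. Binding is expressed as a within-array Z-score. This score was averaged across arrays of the same protein sequence at different concentrations or buffers and across linkers, and negative values can be read as non-binding.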

Fuc(a1-2)Gal(b1-3)GalNAc = target: Fuc(a1-2)Gal(b1-3)GalNAc
Method in brief: as §1

[1] = target: Fuc(a1-2)Gal(b1-3)GalNAc(a1-3)[Fuc(a1-2)]Gal(b1-4)Glc
Method in brief: as §1

[2] = target: Fuc(a1-2)Gal(b1-3)GalNAc(a1-3)[Fuc(a1-2)]Gal(b1-4)GlcNAc
Method in brief: as §1

[3] = target: Fuc(a1-2)Gal(b1-3)GalNAc(b1-3)Gal
Method in brief: as §1

[4] = target: Fuc(a1-2)Gal(b1-3)GalNAc(b1-3)Gal(a1-4)Gal(b1-4)Glc
Method in brief: as §1

[5] = target: Fuc(a1-2)Gal(b1-3)GalNAc(b1-4)[Neu5Ac(a2-3)]Gal(b1-4)Glc
Method in brief: as §1

Fuc(a1-2)Gal(b1-3)GlcNAc = target: Fuc(a1-2)Gal(b1-3)GlcNAc
Method in brief: as §1

[6] = target: Fuc(a1-2)Gal(b1-3)GlcNAc(b1-2)Man(a1-3)[Fuc(a1-2)Gal(b1-3)GlcNAc(b1-2)Man(a1-6)]Man(b1-4)GlcNAc(b1-4)GlcNAc
Method in brief: as §1

[7] = target: Fuc(a1-2)Gal(b1-3)GlcNAc(b1-2)Man(a1-3)[Fuc(a1-2)Gal(b1-3)GlcNAc(b1-2)Man(a1-6)]Man(b1-4)GlcNAc(b1-4)[Fuc(a1-6)]GlcNAc
Method in brief: as §1

[8] = target: Fuc(a1-2)Gal(b1-3)GlcNAc(b1-3)Gal(b1-4)Glc
Method in brief: as §1

[9] = target: Fuc(a1-2)Gal(b1-3)GlcNAc(b1-3)GalNAc
Method in brief: as §1

[10] = target: Fuc(a1-2)Gal(b1-3)GlcNAc(b1-3)[Fuc(a1-2)Gal(b1-3)GlcNAc(b1-6)]GalNAc
Method in brief: as §1

[11] = target: Fuc(a1-2)Gal(b1-3)GlcNAc(b1-3)[Gal(b1-4)GlcNAc(b1-6)]Gal(b1-4)Glc
Method in brief: as §1

[12] = target: Fuc(a1-2)Gal(b1-3)GlcNAc(b1-3)[Gal(b1-4)[Fuc(a1-3)]GlcNAc(b1-6)]Gal(b1-4)Glc
Method in brief: as §1

[13] = target: Fuc(a1-2)Gal(b1-3)GlcNAc(b1-3)[Neu5Ac(a2-6)Gal(b1-4)GlcNAc(b1-6)]Gal(b1-4)Glc
Method in brief: as §1

[14] = target: Fuc(a1-2)Gal(b1-3)GlcNAc6S
Method in brief: as §1

[15] = target: Fuc(a1-2)Gal(b1-3)[Fuc(a1-4)]GlcNAc
Method in brief: as §1

[16] = target: Fuc(a1-2)Gal(b1-3)[Fuc(a1-4)]GlcNAc(b1-2)Man(a1-3)[Fuc(a1-2)Gal(b1-3)[Fuc(a1-4)]GlcNAc(b1-2)Man(a1-3)]Man(b1-4)GlcNAc(b1-4)GlcNAc
Method in brief: as §1

[17] = target: Fuc(a1-2)Gal(b1-3)[Fuc(a1-4)]GlcNAc(b1-2)Man(a1-3)[Fuc(a1-2)Gal(b1-3)[Fuc(a1-4)]GlcNAc(b1-2)Man(a1-6)]Man(b1-4)GlcNAc(b1-4)GlcNAc
Method in brief: as §1

[18] = target: Fuc(a1-2)Gal(b1-3)[Fuc(a1-4)]GlcNAc(b1-2)Man(a1-3)[Fuc(a1-2)Gal(b1-3)[Fuc(a1-4)]GlcNAc(b1-2)Man(a1-6)]Man(b1-4)GlcNAc(b1-4)[Fuc(a1-6)]GlcNAc(b1-4)[Fuc(a1-6)]GlcNAc
Method in brief: as §1

[19] = target: Fuc(a1-2)Gal(b1-3)[Fuc(a1-4)]GlcNAc(b1-3)[Fuc(a1-3)[Gal(b1-4)]GlcNAc(b1-6)]Gal(b1-4)Glc
Method in brief: as §1

[20] = target: Fuc(a1-2)Gal(b1-3)[Fuc(a1-4)]GlcNAc(b1-3)[Gal(b1-4)GlcNAc(b1-6)]Gal(b1-4)Glc
Method in brief: as §1

[21] = target: Fuc(a1-2)Gal(b1-4)Fuc(a1-3)]GlcNAc(b1-2)Man(a1-3)[Fuc(a1-2)Gal(b1-4)[Fuc(a1-3)]GlcNAc(b1-2)Man(a1-6)]Man(b1-4)GlcNAc(b1-4)GlcNAc
Method in brief: as §1

Fuc(a1-2)Gal(b1-4)Glc = target: Fuc(a1-2)Gal(b1-4)Glc
Method in brief: as §1

Fuc(a1-2)Gal(b1-4)Glc6S = target: Fuc(a1-2)Gal(b1-4)Glc6S
Method in brief: as §1

Fuc(a1-2)Gal(b1-4)GlcNAc = target: Fuc(a1-2)Gal(b1-4)GlcNAc
Method in brief: as §1

[22] = target: Fuc(a1-2)Gal(b1-4)GlcNAc(b1-2)Man
Method in brief: as §1

[23] = target: Fuc(a1-2)Gal(b1-4)GlcNAc(b1-2)Man(a1-3)[Fuc(a1-2)Gal(b1-4)GlcNAc(b1-2)Man(a1-6)]Man(b1-4)GlcNAc(b1-4)GlcNAc
Method in brief: as §1

[24] = target: Fuc(a1-2)Gal(b1-4)GlcNAc(b1-2)Man(a1-3)[Fuc(a1-2)Gal(b1-4)GlcNAc(b1-2)Man(a1-6)]Man(b1-4)GlcNAc(b1-4)[Fuc(a1-6)]GlcNAc
Method in brief: as §1

[25] = target: Fuc(a1-2)Gal(b1-4)GlcNAc(b1-2)[Fuc(a1-2)Gal(b1-4)GlcNAc(b1-4)]Man(a1-3)[Fuc(a1-2)Gal(b1-4)GlcNAc(b1-2)Man(a1-6)]Man(b1-4)GlcNAc(b1-4)GlcNAc
Method in brief: as §1

[26] = target: Fuc(a1-2)Gal(b1-4)GlcNAc(b1-3)Gal(b1-4)GlcNAc
Method in brief: as §1

[27] = target: Fuc(a1-2)Gal(b1-4)GlcNAc(b1-3)Gal(b1-4)GlcNAc(b1-2)Man(a1-3)[Fuc(a1-2)Gal(b1-4)GlcNAc(b1-3)Gal(b1-4)GlcNAc(b1-2)Man(a1-6)]Man(b1-4)GlcNAc(b1-4)GlcNAc
Method in brief: as §1

[28] = target: Fuc(a1-2)Gal(b1-4)GlcNAc(b1-3)Gal(b1-4)GlcNAc(b1-3)Gal(b1-4)GlcNAc
Method in brief: as §1

[29] = target: Fuc(a1-2)Gal(b1-4)GlcNAc(b1-3)GalNAc
Method in brief: as §1

[30] = target: Fuc(a1-2)Gal(b1-4)GlcNAc(b1-3)[Fuc(a1-2)Gal(b1-4)GlcNAc(b1-6)]GalNAc
Method in brief: as §1

[31] = target: Fuc(a1-2)Gal(b1-4)GlcNAc(b1-3)[Fuc(a1-3)[Gal(b1-4)]GlcNAc(b1-6)]Gal(b1-4)Glc
Method in brief: as §1

[32] = target: Fuc(a1-2)Gal(b1-4)GlcNAc(b1-6)GalNAc
Method in brief: as §1

[33] = target: Fuc(a1-2)Gal(b1-4)GlcNAc6S
Method in brief: as §1

[34] = target: Fuc(a1-2)Gal(b1-4)[Fuc(a1-3)]GlcNAc
Method in brief: as §1

[35] = target: Fuc(a1-2)Gal(b1-4)[Fuc(a1-3)]GlcNAc(b1-2)Man(a1-3)[Fuc(a1-2)Gal(b1-4)[Fuc(a1-3)]GlcNAc(b1-2)Man(a1-6)]Man(b1-4)GlcNAc(b1-4)GlcNAc
Method in brief: as §1

[36] = target: Fuc(a1-2)Gal(b1-4)[Fuc(a1-3)]GlcNAc(b1-2)Man(a1-3)[Fuc(a1-2)Gal(b1-4)[Fuc(a1-3)]GlcNAc(b1-2)Man(a1-6)]Man(b1-4)GlcNAc(b1-4)[Fuc(a1-6)]GlcNAc
Method in brief: as §1

[37] = target: Fuc(a1-2)Gal(b1-4)[Fuc(a1-3)]GlcNAc(b1-2)[Fuc(a1-2)Gal(b1-4)[Fuc(a1-3)]GlcNAc(b1-4)]Man(a1-3)[Fuc(a1-2)Gal(b1-4)[Fuc(a1-3)]GlcNAc(b1-2)Man(a1-6)]Man(b1-4)GlcNAc(b1-4)GlcNAc
Method in brief: as §1

[38] = target: Fuc(a1-2)Gal(b1-4)[Fuc(a1-3)]GlcNAc(b1-3)Gal(b1-4)[Fuc(a1-3)]GlcNAc
Method in brief: as §1

[39] = target: Fuc(a1-2)Gal(b1-4)[Fuc(a1-3)]GlcNAc(b1-3)Gal(b1-4)[Fuc(a1-3)]GlcNAc(b1-3)Gal(b1-4)[Fuc(a1-3)]GlcNAc
Method in brief: as §1

B1: HPA (Helix pomatia), Q2F1K8 (protein)
chain: MQAFYSGLLLLCVVAFAAAQRVQSGKIDCGNDAGWAKVPSDDPGRDNTRELAKNITFASPYCRPPVVLLSITQLDVEQSQNLRVIARLYSVSPTGFKASCYTWHNTKVYSMSISWISIENY
glycan array binding signal (z-score) (Fuc(a1-2)Gal): -0.198
glycan array binding signal (z-score) (Fuc(a1-2)Gal(b1-3)GalNAc): -0.057
glycan array binding signal (z-score) [1]: -0.006
glycan array binding signal (z-score) [2]: 0.012
glycan array binding signal (z-score) [3]: -0.083
glycan array binding signal (z-score) [4]: -0.204
glycan array binding signal (z-score) [5]: -0.266
glycan array binding signal (z-score) (Fuc(a1-2)Gal(b1-3)GlcNAc): 0.334
glycan array binding signal (z-score) [6]: 0.956
glycan array binding signal (z-score) [7]: -0.299
glycan array binding signal (z-score) [8]: -0.317
glycan array binding signal (z-score) [9]: -0.279
glycan array binding signal (z-score) [10]: 0.06
glycan array binding signal (z-score) [11]: -0.27
glycan array binding signal (z-score) [12]: -0.454
glycan array binding signal (z-score) [13]: -0.283
glycan array binding signal (z-score) [14]: -0.152
glycan array binding signal (z-score) [15]: 0.273
glycan array binding signal (z-score) [16]: -0.094
glycan array binding signal (z-score) [17]: 4.62
glycan array binding signal (z-score) [18]: -0.007
glycan array binding signal (z-score) [19]: -0.267
glycan array binding signal (z-score) [20]: -0.126
glycan array binding signal (z-score) [21]: 0.125
glycan array binding signal (z-score) (Fuc(a1-2)Gal(b1-4)Glc): -0.402
glycan array binding signal (z-score) (Fuc(a1-2)Gal(b1-4)Glc6S): 0.024
glycan array binding signal (z-score) (Fuc(a1-2)Gal(b1-4)GlcNAc): -0.28
glycan array binding signal (z-score) [22]: -0.353
glycan array binding signal (z-score) [23]: 0.216
glycan array binding signal (z-score) [24]: -0.322
glycan array binding signal (z-score) [25]: -0.075
glycan array binding signal (z-score) [26]: -0.16
glycan array binding signal (z-score) [27]: -0.089
glycan array binding signal (z-score) [28]: 0.219
glycan array binding signal (z-score) [29]: -0.033
glycan array binding signal (z-score) [30]: -0.177
glycan array binding signal (z-score) [31]: -0.081
glycan array binding signal (z-score) [32]: 0.162
glycan array binding signal (z-score) [33]: -0.322
glycan array binding signal (z-score) [34]: -0.109
glycan array binding signal (z-score) [35]: 2.06
glycan array binding signal (z-score) [36]: -0.012
glycan array binding signal (z-score) [37]: -0.15
glycan array binding signal (z-score) [38]: -0.006
glycan array binding signal (z-score) [39]: 0.116
